Measured values as given in PubChem BioAssay AID1671194 (National Center for Advancing Translational Sciences (NCATS), 2021).
Screen size: about 140,000 compounds; about 240 (0.17%) were called active. The inconclusive results got no clear call from the source; some entries with a clear call stand among them for comparison. Calls follow the shape of the dose curve; as a rule, active = well fitted inhibition curve with a large enough effect; inconclusive = small, poorly fitted or top-dose-only effect; inactive = no such curve, though single readings can be large or run the other way. A potency beside an inconclusive call is a rough fit, not a confirmed value.

Test: Primary qHTS assay for inhibitors of alpha-synuclein gene (SNCA) expression; also: nearly all actives have a fitted effect of over 45% in size
Conditions: HEK-293 SNCA-luciferase knock-in, luminescence, 24 h; series mostly up to 57.2 µM
Potency is read from the fitted curve at half-maximal effect; tags tell the direction and shape of the fitted curve.

SMILES | Potency
CC1(COCC2CC2)COc2ccc(C(=O)Nc3ccc4[nH]ccc4c3)cc2N1 (centres undefined) | active: 7.08 µM
Cc1ccc(-c2cn3c(n2)CO[C@@H](CNCc2ccc(S(C)(=O)=O)cc2)C3)cc1 | inactive
CC(C)(O)CN1CCC(=O)N(Cc2ccccc2)CCc2ccccc21 | inactive
COc1ccc(C(=O)N2CCN(c3cc(-c4ccc(Cl)cc4)[nH]n3)CC2)cc1F | inconclusive: 39.8 µM [inhibitor, single point]
Cc1ccc(-c2c(C(=O)NCc3ccccn3)nc3sccn23)cc1 | inactive
CSc1cccc(NC(=O)COc2cccc(-c3nnc4n3CCCC4)c2)c1 | inactive
Cc1ccc(C)c(CN2C(=O)NC3(CCN(C(=O)c4ccccn4)CC3)C2=O)c1 | inconclusive: 1.26 µM [inhibitor, full curve, poor fit]
CCOc1ccc(CCNC(=O)c2c(C)oc3ncn(C)c(=O)c23)cc1 | inconclusive: 3.55 µM [inhibitor, full curve, poor fit]
COc1cc(F)ccc1-c1cnc2n[nH]c(-c3ccccc3)c2n1 | inactive
Cc1ccc2oc(-c3cccc(NC(=O)c4sc5c([N+](=O)[O-])cccc5c4Cl)c3)nc2c1 | inconclusive: 39.8 µM [inhibitor, single point]
CNC(=O)N1CCC(C2CCN(C(=O)NCc3ccc(F)cc3)C2)CC1 (centres undefined) | inconclusive: 39.8 µM [inhibitor, partial curve, poor fit]
O=C(c1c(-c2ccccc2)cc(=O)n2c1CCC2)N1CCCC1 | inactive
COc1ccc(C(=O)N2CCC(Cc3nc(-c4ccc(F)cc4)no3)CC2)cc1F | inconclusive: 1.26 µM [inhibitor, full curve, poor fit]
O=C1CC2(CCN(Cc3ccc(C(F)(F)F)cc3)C2)Nc2ccccc2N1 (centres undefined) | inconclusive: 39.8 µM [inhibitor, single point]
N#Cc1cccc(NC(=O)O[C@@H]2CO[C@H]3[C@@H]2OC[C@@H]3Nc2nccc(-c3cccc(C#N)c3)n2)c1 | inactive
Cc1ccc(-c2cc3c(N4CCN(c5cc(C)ccc5C)CC4)nccn3n2)cc1 | inconclusive: 1.58 µM [inhibitor, single point]
CCOC(=O)c1cc(-c2ccccc2)n(CCC(=O)Nc2nc3c(C)cccc3s2)c1C | inconclusive: 17.8 µM [inhibitor, partial curve, poor fit]
N#Cc1ccc(S(=O)(=O)N2CC(n3cc(C(=O)N4CCOCC4)nn3)C2)cc1 | inactive
O=C1CCN(S(=O)(=O)c2ccccc2)CCCN(CC2CCCCC2)CCN1 | inconclusive: 7.94 µM [inhibitor, single point]
C(Cc1noc(C2CNC2)n1)OCC1CC1 | inconclusive: 14.1 µM [inhibitor, partial curve, poor fit]
COc1ccc(-c2noc([C@@H]3C[C@H](NCc4cccc(C#N)c4)CN3C)n2)cc1 | inactive
O=S(=O)(c1ccc(F)cc1)N(Cc1nc(-c2ccccc2)no1)C1CCCCC1 | inactive

SMILES | Potency
CCN1CCC(CC(=O)N2CCC(C3CCN(C(=O)NC)CC3)C2)CC1 (centres undefined) | inconclusive: 35.5 µM [inhibitor, single point]
O=C1CC(c2cccc(Cl)c2Cl)c2cc3c(cc2N1)OCCO3 (centres undefined) | inconclusive: 7.08 µM [inhibitor, single point]
CCc1nn(CC(=O)N2CCN(c3cccc(Cl)c3)CC2)c(=O)c2cc3sccc3n12 | inconclusive: 2.24 µM [inhibitor, single point]
O=C(C[C@@H]1O[C@H](CNS(=O)(=O)c2ccc(Cl)cc2)[C@@H](O)C1O)N1CCN(c2ccccc2)CC1 (some centres undefined) | inconclusive: 4.47 µM [inhibitor, single point]
COc1cccc(CNC(=O)[C@@H]2C[C@@H](O)CN2C2CCN(C(=O)c3ccccn3)CC2)c1 | inactive
CCOc1ccc(NC(=O)Cn2nc(SC)c(S(=O)(=O)c3ccccc3)c2N)cc1 | inconclusive: 14.1 µM [inhibitor, partial curve, poor fit]
CC(C)c1nc2c(c(-c3ccc(O)cc3)n1)CCN(Cc1ccccc1C(F)(F)F)CC2 | inconclusive: 28.2 µM [inhibitor, partial curve, poor fit]
CCN(CC)c1ccc(NC(=O)CN2CCN(S(=O)(=O)c3cc(Cl)ccc3OC)CC2)cc1 | inconclusive: 39.8 µM [inhibitor, single point]
Cc1cn2nc(C(=O)NCc3ccc(F)cc3F)cc2c(N2CCCC2)n1 | inconclusive: 2.82 µM [inhibitor, full curve, poor fit]
O=C(NCCCN1CCCCC1)c1[nH]c2ccccc2c1Sc1ccc(Cl)cc1 | inconclusive: 28.2 µM [inhibitor, single point]
CCc1cccc2c(C(CC(=O)NCCc3ccccc3)c3cccc4c3OCO4)c[nH]c12 (centres undefined) | inactive
O=C(CCS(=O)(=O)c1nc(-c2cccs2)cc(C(F)(F)F)n1)Nc1ccc(F)c(Cl)c1 | inconclusive: 28.2 µM [inhibitor, single point]
Cn1ncc(N2CCOC(CCNc3cnc4ccccc4n3)C2)cc1=O (centres undefined) | inactive
CN(Cc1ccccc1)C(=O)CN1C(=O)COc2ccc(C(=O)COc3cccc(F)c3)cc21 | inactive
COc1ccc(C(=O)NC2CCN(c3cc(-c4ccccc4)[nH]n3)C2)cc1OC (centres undefined) | inconclusive: 7.94 µM [inhibitor, full curve, poor fit]
Cc1nc(-c2ccc(S(=O)(=O)N(Cc3ccccc3)C(C)C)cc2)co1 | inconclusive: 39.8 µM [inhibitor, single point]
CNC(=O)C1CCN(Cc2ccccc2-c2ccccc2F)CC1 | inactive
O=C(NCCCN1CCN(c2ccccc2F)CC1)c1cc2c(Cl)nc3ccccc3c2s1 | inconclusive: 4.47 µM [inhibitor, single point]
FC(F)(F)c1ccc(CN2CCn3c(nnc3C3CCCNC3)C2)cc1 (centres undefined) | inconclusive: 35.5 µM [inhibitor, single point]
COc1ccccc1CNC(=O)C1CCCN(Cc2cccc(-c3ccc(F)cc3F)c2)C1 (centres undefined) | inconclusive: 39.8 µM [inhibitor, single point]
COC1CN(c2cccc(F)c2)C12CCN(C(=O)NCCc1ccccc1)CC2 (centres undefined) | inactive
COc1ccc(C(=O)N2CC(c3nnc(C(C)C)o3)C3(CCOCC3)C2)cc1OC (centres undefined) | inactive

SMILES | Potency
COc1ccccc1N1CCN(c2ncccc2CNC(=O)C2CCCO2)CC1 (centres undefined) | inconclusive: 3.16 µM [inhibitor, partial curve, poor fit]
COc1ccc(-c2[nH]c(-c3ccccc3)nc2SCC(=O)Nc2ccc3c(c2)OCCO3)cc1 | inconclusive: 22.4 µM [inhibitor, single point]
O=C(NCCc1ccccn1)c1ccc(-c2nnc3ccc(NC(=O)C4CCC4)cn23)cc1 | inactive
Cc1ccc(CN2COc3cc(C)c4c(oc(=O)c5ccccc54)c3C2)cc1 | inconclusive: 7.08 µM [inhibitor, single point]
O=C1NCC(=O)N2CCN(C(=O)Nc3ccccc3Oc3ccccc3)CC12 (centres undefined) | inconclusive: 7.08 µM [inhibitor, single point]
CCN1CCN(c2ccc(-c3cccc(N)c3)nn2)CC1 | inconclusive: 11.2 µM [inhibitor, partial curve, poor fit]
Cc1cc(C(F)(F)F)nn1CC(=O)N1CCCC(c2[nH]ccc2C(N)=O)C1 (centres undefined) | inconclusive: 39.8 µM [inhibitor, single point]
Cn1nc(C2CCCN(C(=O)c3ccoc3)C2)n(C2CCCC2)c1=O (centres undefined) | inconclusive: 25.1 µM [inhibitor, partial curve, poor fit]
CC(C)C(=O)N1CCC(N2C(=O)C3(CCCCC3)C2c2ccncc2)CC1 (centres undefined) | inactive
CCOC(=O)C1CCCN(C(=O)Cn2ncc3c(C)n(Cc4ccccc4F)c(C)c3c2=O)C1 (centres undefined) | inconclusive: 31.6 µM [inhibitor, single point]
CS(=O)(=O)Nc1cc(-c2noc([C@@H]3CCCN3Cc3ccccc3F)n2)ccn1 | inconclusive: 15.8 µM [inhibitor, partial curve]
COc1cccc(-n2cc(C(=O)Nc3cc(OC)c(OC)c(OC)c3)c3ccccc3c2=O)c1 | inconclusive: 39.8 µM [inhibitor, single point]
Cc1ccc(NC(=O)C2(Cc3cccnc3)CCCCC(=O)N2)cc1 (centres undefined) | inconclusive: 10 µM [inhibitor, partial curve, poor fit]
CCOC(=O)c1cccc(NC(=O)c2cc(S(=O)(=O)N3CCCC(C)C3)cn2C)c1 (centres undefined) | inconclusive: 39.8 µM [inhibitor, single point]
O=C(NC1CCCc2c1cnn2-c1ccc(F)cc1F)c1ccsc1 (centres undefined) | inconclusive: 10 µM [inhibitor, partial curve, poor fit]
Cc1noc([C@@H]2CN(C(=O)COc3ccc(Cl)cc3)C[C@H]2CO)n1 | inactive
Cc1ccc(C)c(-c2cc3c(=O)n(CCNC(=O)c4ccccc4)ccn3n2)c1 | inconclusive: 8.91 µM [inhibitor, single point]
NCCn1cc(C(=O)NCc2cc3n(n2)CCN(C2CCCCC2)C3)nn1 | inconclusive: 10 µM [inhibitor, full curve, poor fit]
CN1C(=O)CCC2(CNC(=O)c3cccnc3)CCCC=C12 (centres undefined) | inconclusive: 20 µM [inhibitor, partial curve, poor fit]
O=C(NC1CC1)c1cc2n(n1)CC(c1ccc3c(c1)OCO3)OC2 (centres undefined) | inconclusive: 2.51 µM [inhibitor, full curve, poor fit]
